Data from PMC9574860, “Chemical Toolkit for PARK7: Potent, Selective, and High-Throughput” (Journal of Medicinal Chemistry, 2022).
The campaign covered roughly 7,900 compounds. About 400 (5.1%) showed an effect of 50% or more. Some of the results follow.

The compounds below were run against Parkinson's disease protein 7 (PARK7/DJ1) (human, UniProt Q99497) (assay: primary screen, percent inhibition; read as competition with a fluorescent probe by fluorescence polarization; higher = more effect of the substance). Details: 100 µM.
Parkinson's disease protein 7 (PARK7/DJ1), sequence (Q99497 whole entry, looked up, the tested form may be a part): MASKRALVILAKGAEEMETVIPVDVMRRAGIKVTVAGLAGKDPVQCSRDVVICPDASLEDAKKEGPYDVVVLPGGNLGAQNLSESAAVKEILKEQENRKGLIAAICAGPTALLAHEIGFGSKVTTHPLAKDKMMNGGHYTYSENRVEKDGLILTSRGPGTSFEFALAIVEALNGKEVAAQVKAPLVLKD
Method in brief: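 Fluorescence-polarization probe displacement (JYQ-107, 20 nM final, 2 h) after 2 h preincubation of PARK7 (0.2 μM final) with each fragment at 100 μM final. Read-out ex/em 480/520 nm; remaining activity derived from FP signal loss relative to reference controls.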

Structure (SMILES) | Inhibition % [%]
N#CC(=Cc1cccnc1)c1ccc(C(F)(F)F)cn1 | 12.6
CCc1nc(C(C#N)=Cc2cnn(C)c2)sc1C | 2.61
CCc1nccn1S(=O)(=O)c1cc(C)c(C)cc1OC | -0.95
CC1(C)COC(=O)C1NC(=O)CN1CCCCC1=O (stereo not drawn) | 0.524
C=CC(=O)N1CCc2c(cnn2-c2ccccc2)C1 | 8.71
CC(c1ccc(F)c(F)c1)N(C)C(=O)CCl (stereo not drawn) | 92.5
CN(c1ccn(C)n1)S(=O)(=O)c1ccccc1S(=O)(=O)F | 97.9
CSc1ccc(C(=O)CCl)cc1 | 89.6
Cn1nnc2ccc(B3OC(C)(C)C(C)(C)O3)cc21 | 6.42
O=C1OCCC1n1nnc(-c2ccc(F)cc2)n1 (stereo not drawn) | 4.53
Cc1nnc(C(C)Cl)o1 (stereo not drawn) | 1.55
C=CC(=O)NCC(=O)NC1(C)CCCCC1 | 13.6
C=CC(=O)NC1CCCC1CNS(C)(=O)=O (stereo not drawn) | 5.32
O=c1onc(-c2ccccn2)n1Cc1ccccc1F | 2.03
C=CC(=O)N1CCSCC1c1ccc(C)o1 (stereo not drawn) | 7.34
Cl.ClCCc1nc2ccccc2[nH]1 | 3.05
N#Cc1ccc(N2CCOc3cccc(F)c3C2)cn1 | 0.655

Structure (SMILES) | Inhibition % [%]
COc1ccccc1NC(=O)c1ccc(NC(=O)CCl)cc1 | 28.8
C=CC(=O)N1CCN(C(=O)C2CC2)C1 | 2.16
C=CC(=O)NC(C)c1cc(F)ccc1N1CCOCC1 (stereo not drawn) | 6.03
N#Cc1ncn(CC(=O)NCCC2=CCCCC2)n1 | 6.29
N#Cc1ccc(N[C@H]2c3ccccc3C[C@H]2O)cn1 | 37
CC1CCCCC1NC(=O)CCl (stereo not drawn) | 3.04
S=c1cn[nH]c2ccccc12 | 20.2
CCNS(=O)(=O)c1ccc(B2OC(C)(C)C(C)(C)O2)c(C)c1 | 5.32
N#Cc1ncn(CCC(=O)NCc2ccc(F)cc2)n1 | 7.22
C=CC(=O)NCc1cccc(-c2cnco2)c1 | 5.28
COCCCN1CCCN(C(=O)c2ccc(C#N)[nH]2)CC1 | 7.64
C=CCc1ccccc1OCC1CO1 (stereo not drawn) | 8.19
CCOc1ncccc1CNC(=O)c1c[nH]c(C#N)c1 | 6.1
CCCn1c(=O)n(C)c(=O)c2c(S)nc(C(C)C)nc21 | 9.53
C=CC(=O)Nc1ccc(OC)nc1 | 45.7
Cc1cc(C=C(C#N)C(N)=O)ccc1F | 1.94
